Measured values published in PMC6919601, “Identification of Plasmodium dipeptidyl aminopeptidase allosteric inhibitors by high throughput screening” (PLoS ONE, 2019).
The campaign covered roughly 110,000 compounds. About 230 (0.21%) showed an effect of 50% or more. This is one part of the list.

Molecular target: DPAP1 (Plasmodium falciparum, UniProt Q8IIJ9)
Assay: primary screen, percent inhibition; read by cleavage of a fluorogenic dipeptide substrate; higher = more effect of the substance
Parameters: species or system P. falciparum D10 trophozoite lysates; single well
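Further: 30 min substrate incubation versus DMSO and 10 µM JCP410 controls.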

Sequence of DPAP1 (Q8IIJ9 whole entry, looked up): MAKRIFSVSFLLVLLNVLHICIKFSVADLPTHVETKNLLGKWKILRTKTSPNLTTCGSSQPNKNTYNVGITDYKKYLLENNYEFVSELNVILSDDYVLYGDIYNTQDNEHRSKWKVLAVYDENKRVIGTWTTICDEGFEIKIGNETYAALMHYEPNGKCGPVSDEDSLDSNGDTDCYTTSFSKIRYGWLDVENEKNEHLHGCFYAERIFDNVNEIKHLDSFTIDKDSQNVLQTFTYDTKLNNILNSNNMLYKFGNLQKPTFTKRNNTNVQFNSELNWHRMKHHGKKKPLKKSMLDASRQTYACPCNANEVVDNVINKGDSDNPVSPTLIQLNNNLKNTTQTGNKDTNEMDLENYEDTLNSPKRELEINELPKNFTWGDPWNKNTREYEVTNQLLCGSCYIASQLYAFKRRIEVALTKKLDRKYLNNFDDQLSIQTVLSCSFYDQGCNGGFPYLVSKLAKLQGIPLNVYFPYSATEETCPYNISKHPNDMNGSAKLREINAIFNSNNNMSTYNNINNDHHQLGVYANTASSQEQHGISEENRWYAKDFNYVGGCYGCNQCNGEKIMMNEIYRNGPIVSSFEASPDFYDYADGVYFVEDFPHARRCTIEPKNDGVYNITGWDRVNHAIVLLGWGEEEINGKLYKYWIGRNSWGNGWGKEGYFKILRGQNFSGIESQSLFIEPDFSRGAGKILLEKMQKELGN

Row | SMILES | % Inhibition @ 10 uM [%]
1 | Cc1c(-n2nnc3ccccc32)cnc2nncn12 | 2.57
2 | CCN(CC)C(=O)C(=O)NC(C)C(c1cccs1)N1CCN(C)CC1 (stereo not drawn) | 0.66
3 | COCCCNC(=O)C(C)n1nc(C)c2c(C)n(-c3ccccc3)nc2c1=O (stereo not drawn) | 4.32
4 | COc1cccc(C(=O)N[C@@H](CC2CCCCC2)C(=O)NCC#N)c1 | 1.35
5 | C1CCN(CCNC2CCSC2)CC1 (stereo not drawn) | 2.99
6 | Cc1nn(C(C)C(=O)NCCC2=CCCCC2)c(=O)c2c1sc1ccccc12 (stereo not drawn) | 1.31
7 | CCc1cc2c(=O)n(Cc3cccc(C)c3)cnc2s1 | -1.26
8 | CCC(C)NC(=O)c1ccc(COc2ccc(Cl)cc2)o1 (stereo not drawn) | 0.5
9 | Fc1ccc(-c2cc(C(F)(F)F)nc(NC3CCCC3)n2)cc1 | -0.503
10 | COc1cc(CN2CCCCCC2)c([N+](=O)[O-])cc1OC | -3.56
11 | CCN1CCN(CCNC(=O)C(C)n2nc(C)c3c(C)n(-c4ccccc4)nc3c2=O)CC1 (stereo not drawn) | -1.94
12 | O=C(COc1ccccc1)NCCn1ccc2ccccc21 | -4.16
13 | CCCN(CCO)CC1=CC[C@H]2C[C@@H]1C2(C)C | -4.37
14 | O=C(NCc1ccc2c(c1)OCO2)c1cc(S(=O)(=O)N2CCCCC2)c[nH]1 | 0.0281
15 | O=C(Nc1ccc(-c2cn3cccnc3n2)cc1)c1ccc(Br)cc1 | 0.13
16 | COc1cc(C2C(C#N)=C(N)OC3=C2C(=O)c2ccccc2C3=O)cc(OC)c1OC (stereo not drawn) | -0.0678
17 | Cc1ccsc1C(C#N)NC(=O)C(CC(C)CC(C)(C)C)NC(=O)OCc1ccccc1 (stereo not drawn) | 4.63
18 | NC(=O)c1cc(-c2ccc(O)cc2)nc2ccccc12 | -2.35
19 | COc1ccc(CC(=O)N2CCOCC2)cc1 | -1.92
20 | Cc1cccc(NC(=O)C(CC(C)C)N2Cc3ccccc3C2=O)n1 (stereo not drawn) | -7.33
21 | Sc1nnc(-c2ccccc2)n1/N=C/c1cc2c(cc1Cl)OCO2 | 1.25

Row | SMILES | % Inhibition @ 10 uM [%]
22 | CC(C)C[C@H](NC(=O)c1ccccc1CCc1ccccc1)C(=O)NCC#N | -3.04
23 | CCN(CC)Cc1n[nH]c(CN(CC)CC)n1 | 2.02
24 | Cc1ccc(CN(C(=O)COc2cc(C)c(Cl)c(C)c2)C2CCS(=O)(=O)C2)o1 (stereo not drawn) | 5.29
25 | COc1ccc2c(c1)CC/C(=C\c1cccc([N+](=O)[O-])c1)C2=O | -0.0369
26 | c1ccn(-c2ccc(-c3noc(C4CCCCC4)n3)cc2)c1 | 2.99
27 | COc1ccc(CCNc2sc(S(C)(=O)=O)nc2S(=O)(=O)c2ccc(Cl)cc2)cc1 | -0.522
28 | Cc1ccc(-c2cc(-c3ccc(F)cc3)nc(N)c2C#N)o1 | -3.13
29 | Cc1ccc(C2=NC(=O)/C(=C/c3cc(O)c(O)c(Br)c3)S2)cc1 | 22.3
30 | Cc1ccc(C(=O)NC(Cc2c[nH]c3ccccc23)C(=O)O)o1 (stereo not drawn) | 0.503
31 | N#CC1=C(N)N2C(=C(C#N)C1c1ccc(Cl)cc1)Sc1ccccc12 (stereo not drawn) | 6.06
32 | CC(C)CC1=NN2C(=N)/C(=C/c3cccc4ccccc34)C(=O)N=C2S1 | 2.17
33 | CN1CCC(N2CCN(C/C=C/c3ccccc3)CC2)CC1 | 4.75
34 | O=c1oc2ccc3ccccc3c2cc1-c1csc(NC2CCCCC2)n1 | 4.02
35 | COc1cc(OC)c(C=C2C(=O)OC3(CCCC3)OC2=O)cc1Br | -0.85
36 | CCOc1ccc(N2C(=O)CC(N3CCN(Cc4ccc5c(c4)OCO5)CC3)C2=O)cc1 (stereo not drawn) | -4.21
37 | OCCNCc1cc(Br)ccc1OCc1ccc(Cl)cc1Cl | -3.87
38 | CC(=O)c1ccc2[nH]c3c(c2c1)CCCC3 | -10.6
39 | Cn1c(=O)c2c(nc(NC3CCCCC3)n2Cc2ccc(F)cc2)n(C)c1=O | 2.09
40 | CC(=O)c1cc(-c2ccc(F)cc2)n(CC(=O)NC2CCN(Cc3ccccc3)CC2)c1C | -3.64
41 | COC(=O)c1ccc(Oc2nc(NC(C)C)nc(NC(C)C)n2)cc1 | -0.467
42 | Cc1cc(=O)n2nc(N3CCCC(C(=O)NCc4ccco4)C3)sc2n1 (stereo not drawn) | -3.79

Row | SMILES | % Inhibition @ 10 uM [%]
43 | CCC(=O)n1nc(-c2ccc(Cl)cc2)nc1NCc1ccco1 | 2.31
44 | CN(C)c1ccc(C2C(C#N)=C(N)Oc3[nH]nc(-c4ccccc4)c32)cc1 (stereo not drawn) | -2.77
45 | CC[n+]1c(C)n(CC(O)COCC2CC=CCC2)c2ccccc21 (stereo not drawn) | 0.147
46 | O=C(NCC1c2ccccc2CCN1C(=O)CN1CCOCC1)C1CCCCC1 (stereo not drawn) | -4.96
47 | CC(C)(CO)Nc1nc(NCc2ccco2)nc(N2CCOCC2)n1 | 2.05
48 | CCOc1ccc(CCNc2nc(-c3ccc(OC)cc3)no2)cc1OCC | 5.09
49 | CCN(CC)c1ccc(NC(=O)c2nn(C)cc2Cl)cc1 | -1.44
50 | Cc1cc(NS(=O)(=O)c2ccc(NC(=O)C(F)(F)F)cc2)nc(C)n1 | -4.21
51 | O=C(CN1CCN(Cc2cccc(Cl)c2)C1=O)N1CCC(Cc2ccccc2)CC1 | -0.426
52 | COc1ccc(O)c(C2Nc3ccccc3N=C3CC(C)(C)CC(O)=C32)c1 (stereo not drawn) | -4.67
53 | Cc1cc(C)c(C)c(S(=O)(=O)NCc2ccc(C(=O)N3CCOCC3)cc2)c1C | 3.65
54 | Cc1cccc(CN2C(=O)N/C(=C/c3cn(C)c4ccccc34)C2=O)c1 | -7.61
55 | O=C(c1ccco1)N1CCN(Cc2c[nH]c3ccccc23)CC1 | 0.147
56 | COc1cc2c(cc1OC)C(C(=O)N(C)C1CCCCC1)C(c1cccs1)N(C)C2=O (stereo not drawn) | -6.51
57 | CCOc1ccccc1/C=c1\sc2nc(-c3cccc(C)c3)nn2c1=O | -2.98
58 | CCC(Oc1ccccc1)C(=O)NCc1ccc(S(N)(=O)=O)cc1 (stereo not drawn) | -1.38
59 | CC(C)(C)/C(O)=C/c1nc2cccnc2nc1/C=C(\O)C(C)(C)C | 1.82
60 | N#Cc1cc2c(nc1SCC(=O)NCCc1ccccc1)CCCCC2 | 3.81
61 | Cc1cccn2c(=O)c3cc(C#N)c(=O)n(CCc4ccccc4)c3nc12 | -0.551
62 | COc1ccc(Br)cc1CN1CCN(C(=O)c2cccc(Cl)c2)CC1 | -7
63 | O=C(CSc1nc(-c2ccc(F)cc2)cc(C(F)(F)F)n1)NCc1ccncc1 | -0.318
